Assay results published in PubChem BioAssay (Tox21).
The shares of active, inactive and inconclusive entries below differ from those in the screen. Potencies of inconclusive entries are left out as doubtful fits. Calls of active or inactive are those of the source. Calls come from the whole dose curve; as a rule, active = well fitted curve in the direction sought with a large enough effect in the repeat runs; inconclusive = weak or mixed curves; inactive = no such curve, though single readings can be large; an effect the other way counts as inactive or inconclusive.
Potency is the fitted concentration of half-maximal effect; tags give direction and shape of the fitted curve.

Assay: qHTS RealTime-Glo MT Cell Viability Assay in HEK293 cells - 24 hour (AID 1224886); note: nearly all actives have a fitted effect of over 50% in size; for activity change, negative = cytotoxicity: top concentration of the series differs between compounds; % is set by controls: 0 for no effect and ±100 for the full control effect
Details: RealTime-Glo luminescence; series mostly up to 76.8 µM
Procedure, shortened: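 Nonlytic real-time viability readout: viable cells convert prosubstrate to NanoLuc substrate, giving luminescence proportional to live cell number. HEK293, 600 cells/well, compound added after 5 h, continuous culture at 37 C.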
With `Cc1c(C)n(CCN(C)C)c2ccc(C(=O)OCCN(C)C)cc12` the Potency was inconclusive [cytotoxic, partial curve, poor fit]. In the case of `Cc1ccc(Nc2nccc(N(C)c3ccc4c(C)n(C)nc4c3)n2)cc1S(N)(=O)=O`, the Potency is reported as active: 1.51 µM. In the case of `CC1(C)[C@H]2CC[C@]1(C)C(=O)C2`, the Potency is reported as “inactive”. In the case of `Nc1ccc(Cl)c([N+](=O)[O-])c1`, the Potency is reported as “inactive”. In the case of `CN(C)C(=O)Nc1ccc(Cl)c(Cl)c1`, the Potency is reported as inconclusive [cytotoxic, partial curve, poor fit]. With `OC(CCN1CCCCC1)(c1ccccc1)C1CCCCC1` (stereo not drawn) the Potency was inconclusive [cytotoxic, partial curve, poor fit]. For `S=C([S-])NCCNC(=S)[S-].[Mn+2]`, the Potency was inconclusive [rising, single point]. For `CCCCC(CC)C(=O)OCCOCCOCCOCCOC(=O)C(CC)CCCC` (stereo not drawn), the Potency was inconclusive [cytotoxic, full curve]. In the case of `CCCC(C)C`, the Potency is reported as inconclusive [cytotoxic, partial curve]. In the case of `CCOC(=O)CC(=O)c1ccccc1`, the Potency is reported as “inactive”. For `O=C1c2cccc3c2[C@H](CCC3)CN1[C@@H]1CN2CCC1CC2`, the Potency was inconclusive [cytotoxic, full curve]. For `CCOC(=O)CC(=O)C(=O)OCC`, the Potency was inconclusive [cytotoxic, single point]. In the case of `Cc1c(N)cccc1[N+](=O)[O-]`, the Potency is reported as “inactive”. With `Cc1c(Nc2ncccc2C(=O)O)cccc1C(F)(F)F` the Potency was “inactive”. In the case of `CC(C)(C)C(=O)OCOP(=O)(COCCn1cnc2c(N)ncnc21)OCOC(=O)C(C)(C)C`, the Potency is reported as inconclusive [cytotoxic, full curve]. In the case of `CCCCCCCCSCc1cc(C)c(O)c(CSCCCCCCCC)c1`, the Potency is reported as inconclusive [cytotoxic, partial curve]. For `O=C=NC1CCC(CC2CCC(N=C=O)CC2)CC1` (stereo not drawn), the Potency was “inactive”. For `Cc1ccccc1C(=O)Nc1ccc(C(=O)N2CCCC(N(C)C)c3ccccc32)cc1` (stereo not drawn), the Potency was inconclusive [cytotoxic, full curve]. With `CCC(C)(C)C1CCC(OC)CC1` (stereo not drawn) the Potency was inconclusive [rising, partial curve]. For `CCOc1ccccc1N`, the Potency was inconclusive [cytotoxic, full curve]. For `F[B-](F)(F)F`, the Potency was inconclusive [rising, single point]. With `CCCSc1ccc2nc(NC(=O)OC)[nH]c2c1` the Potency was inconclusive [cytotoxic, full curve] and inactive. For `Cc1cccc(C)c1[N+](=O)[O-]`, the Potency was inconclusive [rising, full curve, poor fit].

Assay: qHTS RealTime-Glo MT Cell Viability Assay in HEK293 cells - 8 hour (AID 1224887); note: nearly all actives have a fitted effect of over 50% in size; for activity change, negative = cytotoxicity: top concentration of the series differs between compounds; % is set by controls: 0 for no effect and ±100 for the full control effect
Details: RealTime-Glo luminescence; series mostly up to 76.8 µM
Procedure, shortened: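 Kinetic, non-lysing viability readout. Seed HEK293 (600/well) with reagent, incubate 5 h at 37 C/5% CO2, pin 23 nL compound in DMSO, incubate at 37 C, read luminescence at 0, 8, 16, 24, 32, 40 h.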
With `COC(C)(C)CC(C)=O` the Potency was “inactive”. With `CC(Cc1ccccc1)(NC(=O)CN)c1ccccc1` (stereo not drawn) the Potency was “inactive”. In the case of `COc1cc(C(C)C)ccc1C`, the activity change, negative = cytotoxicity is reported as inactive: 1.54% [at 15.8 µM]. For `CO[Si](CCCCl)(OC)OC`, the Potency was inconclusive [rising, partial curve, poor fit]. In the case of `Nc1cc(S(=O)(=O)O)ccc1S(=O)(=O)O`, the Potency is reported as “inactive”. In the case of `CCCCCCC=O`, the Potency is reported as “inactive”. With `O=C(NN1CCCC1)NS(=O)(=O)c1ccc(Cl)cc1` the Potency was “inactive”. In the case of `CCCCCCCCCCCBr`, the Potency is reported as “inactive”. In the case of `Cc1cc(C)c(C)c(C)c1`, the Potency is reported as “inactive”. In the case of `CCCCCCCCCCCCc1ccccc1`, the Potency is reported as “inactive”. In the case of `NS(=O)(=O)c1ccc(C(=O)O)cc1`, the Potency is reported as “inactive”. In the case of `CCC(=O)OCCOc1ccccc1`, the Potency is reported as “inactive”. With `COc1c2ccoc2cc2oc(=O)ccc12` the Potency was inconclusive [cytotoxic, partial curve, poor fit]. In the case of `CCCN(CCC)S(=O)(=O)c1ccc(C(=O)O)cc1`, the Potency is reported as inconclusive [rising, partial curve, poor fit]. In the case of `CCC(CO)CO`, the Potency is reported as “inactive”. With `CC1CC(O)CC(C)(C)C1` (stereo not drawn) the Potency was “inactive”.

Assay: qHTS assay to identify small molecule antagonists of the androgen receptor (AR) signaling pathway using the MDA cell line in the presence of 0.5 nM R1881 - cell viability counter screen (AID 1259242); note: nearly all actives have a fitted effect of over 45% in size
Details: MDA-kb2 viability, CellTiter-Fluor protease fluorescence, 16 h; series mostly up to 92.4 µM
Procedure, shortened: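 Cells seeded at 3,000/well and allowed 5 hr at 37C, 0% CO2 before compound transfer and R1881 (0.5 nM final) addition; 16 hr later, live-cell protease fluorescence indicated cytotoxicity.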
With `CCOC(=O)CC(=O)C(=O)OCC` the Potency was inconclusive [cytotoxic, single point]. With `O=C=NC1CCC(CC2CCC(N=C=O)CC2)CC1` (stereo not drawn) the Potency was inconclusive [cytotoxic, full curve]. For `CCOc1ccccc1N`, the Potency was inconclusive [cytotoxic, partial curve]. With `F[B-](F)(F)F` the Potency was inconclusive [cytotoxic, partial curve, poor fit].

Assay: qHTS assay to identify small molecule HDAC inhibitors (AID 1259364);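 note: wild-type HCT-116 cells with endogenous class I/II HDAC activity; nearly all actives have a fitted effect of over 45% in size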
Details: HCT-116 HDAC-Glo I/II luminescence, 2 h; series mostly up to 92.4 µM
Procedure, shortened: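 HCT-116 wt cells, 1,500/well, overnight attach. Compounds (DMSO) 2 h, 37 °C. HDAC-Glo I/II, 30 min RT. Luminescence.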
For `CCOC(=O)CC(=O)c1ccccc1`, the Potency was inconclusive [inhibitor, partial curve]. With `Cc1c(Nc2ncccc2C(=O)O)cccc1C(F)(F)F` the Potency was inconclusive [inhibitor, partial curve]. With `CCC(C)(C)C1CCC(OC)CC1` (stereo not drawn) the Potency was “inactive”.

Assay: qHTS assay to identify small molecule agonists of the sonic hedgehog signaling (Shh) pathway - cell viability counter screen (AID 1259366); note: nearly all actives have a fitted effect of over 50% in size
Details: NIH/3T3 Gli1-Luc viability, CellTiter-Fluor, 24 h; series mostly up to 92.4 µM
Procedure, shortened: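 CellTiter-Fluor fluorescence read-out, 1 hr at 37C, added after 23hr compound exposure. Cells: 3T3 Gli1-Luc, an NIH/3T3 clone with stably integrated Gli1-Luc reporter, plated 4hr before compound.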
With `Cc1ccc(Nc2nccc(N(C)c3ccc4c(C)n(C)nc4c3)n2)cc1S(N)(=O)=O` the Potency was inconclusive [cytotoxic, partial curve]. In the case of `CC1(C)[C@H]2CC[C@]1(C)C(=O)C2`, the Potency is reported as inconclusive [cytotoxic, partial curve, poor fit]. In the case of `Nc1ccc(Cl)c([N+](=O)[O-])c1`, the Potency is reported as inconclusive [cytotoxic, partial curve, poor fit]. For `OC(CCN1CCCCC1)(c1ccccc1)C1CCCCC1` (stereo not drawn), the Potency was “inactive”. With `S=C([S-])NCCNC(=S)[S-].[Mn+2]` the Potency was inconclusive [rising, partial curve]. With `O=C1c2cccc3c2[C@H](CCC3)CN1[C@@H]1CN2CCC1CC2` the Potency was inconclusive [cytotoxic, partial curve, poor fit]. In the case of `Cc1ccccc1C(=O)Nc1ccc(C(=O)N2CCCC(N(C)C)c3ccccc32)cc1` (stereo not drawn), the Potency is reported as inconclusive [cytotoxic, full curve].
